# Reference: PubChem BioAssay (Tox21)
# Inconclusive means that the source gave no clear call. Such entries were picked first, then a sample of the others. For some assays here: Where the call is inconclusive, the potency comes from a doubtful curve fit. Active and inactive are the calls of the source. Unless noted, calls follow the shape of the dose curve; as a rule, active = well fitted curve in the direction sought with a large enough effect in the repeat runs; inconclusive = weak or mixed curves; inactive = no such curve, though single readings can be large; an effect the other way counts as inactive or inconclusive.
# Columns and labels:
# [1] = target: Estrogen receptor (Homo sapiens) (UniProt P03372); assay: qHTS assay to identify small molecule agonists of the estrogen receptor alpha (ER-alpha) signaling pathway (AID 743075; calls by dose curve;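 also: HEK293 GripTite cells with ER-alpha and UAS-driven beta-lactamase reporter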; also: potency is read from the fitted curve at half-maximal effect); settings: HEK293 ER-alpha-UAS-bla, beta-lactamase FRET ratio, 18 h; activation: at 70.1 µM (top of the series)
# [2] = qHTS assay for small molecule activators of the heat shock response signaling pathway - cell viability counter screen (AID 743209); settings: HSE-bla HeLa viability, CellTiter-Glo luminescence, 5 h; activity change, negative = cytotoxicity: at 62.6 µM (top of the series) unless noted; also: nearly all actives have a fitted effect of over 50% in size; also: potency is read from the fitted curve at half-maximal effect
# Summary of the method: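 HSE-bla HeLa cells plated overnight, then exposed to Tox21 compounds (23 nL in DMSO) for 5 h at 37 C. After the bla reporter read, CellTiter-Glo was added in the same wells and luminescence read after 30 min at room temperature.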
# [3] = target: Nuclear receptor subfamily 1 group I member 2 (Rattus norvegicus) (UniProt Q9R1A7); assay: Rat pregnane X receptor (rPXR) activation by small molecules, qHTS assay (AID 1346983); settings: rPXR luciferase reporter cells, One-Glo luminescence, 24 h; max activation: stronger effect = higher value; also: nearly all actives have a fitted effect of over 20% in size; also: potency is read from the fitted curve at half-maximal effect
# Summary of the method: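 Cell-based rPXR luciferase reporter assay, 2,000 cells per well, rested 5hr at 37 C before compound addition in DMSO, then 24 hr at 37 C. One-Glo reagent was added and luminescence read after 30 min at room temperature.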
# [4] = target: Glucocorticoid receptor (Homo sapiens) (UniProt P04150); assay: qHTS assay to identify small molecule agonists of the glucocorticoid receptor (GR) signaling pathway (AID 720691; active = well fitted activation curve with a large enough effect in the signal ratio in the repeat runs, not every such curve was filed as active; inconclusive = weak or mixed curves, or effect the other way; inactive = no such curve, though single readings can be large or run the other way; the % refers to the signal ratio; also: potency is read from the fitted curve at half-maximal effect); settings: GR-bla HeLa, beta-lactamase reporter ratio, 18 h; activation: at 62.4 µM (top of the series) unless noted
# Summary of the method: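 GR-bla HeLa cells carrying a GRE-driven beta-lactamase reporter, exposed to compounds for 18 h at 37 C. Reporter activation read as fluorescence after 2 h with LiveBLAzer B/G FRET substrate at room temperature.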
# [5] = qHTS assay to identify small molecule antagonists of the glucocorticoid receptor (GR) signaling pathway - cell viability counter screen (AID 720693); settings: GR-bla HeLa viability, CellTiter-Glo luminescence, 18 h, with 5 nM dexamethasone present; viability change, negative = cytotoxic: at 58.5 µM (top of the series); also: nearly all actives have a fitted effect of over 55% in size; also: potency is read from the fitted curve at half-maximal effect
# [6] = Human pregnane X receptor (PXR) small molecule agonists, qHTS cell viability counter screen (AID 1346977); also: nearly all actives have a fitted effect of over 50% in size; also: potency is read from the fitted curve at half-maximal effect; as to activity change, negative = cytotoxicity: % is scaled to controls: 0 for no effect and ±100 for the full control effect
# Summary of the method: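 In each well, the PXR reporter HepG2 line was checked for viability: CellTiter-Fluor reagent added 23hr post-dosing, fluorescence read after 1hr incubation at 37C.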
# [7] = qHTS assay for small molecules that induce genotoxicity in human embryonic kidney cells expressing luciferase-tagged ATAD5 - cell viability (AID 651634; calls by dose curve; also: % is scaled to controls: 0 for no effect and ±100 for the full control effect; nearly all actives have a fitted effect of over 25% in size)
# Summary of the method: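 HEK293T cells carrying luciferase-tagged ATAD5, 2,000 cells/well, exposed to compound for 15.5 hr at 37C. Viability read as live-cell protease activity by CellTiter-Fluor fluorescence after 30 min at 37C.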
# [8] = qHTS assay to identify small molecule antagonists of the peroxisome proliferator-activated receptor gamma (PPARg) signaling pathway - cell viability counter screen (AID 743194); settings: PPARg-bla HEK293H viability, CellTiter-Glo luminescence, 17 h, co-treated with 50 nM rosiglitazone; activity change, negative = cytotoxicity: at 62.6 µM (top of the series) unless noted; also: nearly all actives have a fitted effect of over 55% in size; also: potency is read from the fitted curve at half-maximal effect
# Summary of the method: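 PPARg-UAS-bla HEK293H cells were plated, rested 5 h at 37 C, then treated with compounds plus rosiglitazone (50 nM final) for 17 h at 37 C; viability was then read by CellTiter-Glo luminescence after 30 min at room temperature.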
# [9] = qHTS assay to identify small molecule agonists of the TGF-beta/Smad signaling pathway (AID 1346859; active = well fitted activation curve with a large enough effect in the signal ratio in the repeat runs, not every such curve was filed as active; inconclusive = weak or mixed curves; the % refers to the signal ratio; also: % is scaled to controls: 0 for no effect and ±100 for the full control effect)
# Summary of the method: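 Screening used HEK 293T SBE-bla cells at 4,000/well. Test agents: 5 hr, 37 C. Detection: FRET substrate, 2 hr RT, then excitation 405 nm with emissions at 460 and 530 nm.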
# [10] = qHTS assay for small molecule agonists of the antioxidant response element (ARE) signaling pathway - cell viability counter screen (AID 743203; calls by dose curve; also: % is scaled to controls: 0 for no effect and ±100 for the full control effect; nearly all actives have a fitted effect of over 55% in size); settings: ARE-bla HepG2 viability, CellTiter-Glo luminescence, 16 h; viability change, negative = cytotoxic: at 73.3 µM (top of the series)
# Summary of the method: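 ARE-bla HepG2 cells were plated, rested 5 h at 37C/5% CO2, then exposed to compounds in DMSO for 16 h. Viability was read as CellTiter-Glo luminescence after 30 min at room temperature, in the same wells as the ARE screen.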
# [11] = target: Peroxisome proliferator-activated receptor delta (Homo sapiens) (UniProt Q03181); assay: qHTS assay to identify small molecule agonists of the peroxisome proliferator-activated receptor delta (PPARd) signaling pathway (AID 743212; calls by dose curve; also: % is scaled to controls: 0 for no effect and ±100 for the full control effect); settings: HEK293H PPARd-UAS-bla, beta-lactamase FRET ratio, 17 h; activation: at 62.6 µM (top of the series) unless noted
# Summary of the method: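 GeneBLAzer PPARd UAS-bla HEK293H cells (beta-lactamase reporter under UAS control), plated and rested 5 h at 37 C, then exposed to compounds in DMSO at 37 C; LiveBLAzer B/G FRET substrate added, 2 h room temperature, fluorescence read.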
# [12] = qHTS assay to identify small molecule antagonists of the androgen receptor (AR) signaling pathway using the MDA cell line - cell viability counter screen (AID 743041; also: nearly all actives have a fitted effect of over 45% in size; also: potency is read from the fitted curve at half-maximal effect); settings: MDA-kb2 viability, CellTiter-Fluor, 16 h, cells co-treated with R1881 androgen agonist; viability change, negative = cytotoxic: at 70.3 µM (top of the series)
# Summary of the method: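 MDA-kb2 AR-luc human breast carcinoma cells (MMTV-luciferase, AR/GR responsive) were treated with compounds plus R1881 agonist for 16 h at 37 °C. Viability was read as CellTiter-Fluor fluorescence in the same wells as the reporter assay.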
# [13] = target: Estrogen receptor (Homo sapiens) (UniProt P03372); assay: qHTS assay to identify small molecule antagonists of the estrogen receptor alpha (ER-alpha) signaling pathway using the BG1 cell line in the presence of 0.1 nM 17-beta-estradiol (AID 1259244); also: nearly all actives have a fitted effect of over 50% in size; also: potency is read from the fitted curve at half-maximal effect
# Summary of the method: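 VM7Luc4E2 cells (endogenous full-length ER-alpha, 4×ERE-luciferase), kept 5 days in phenol red-free, charcoal-stripped FBS medium; 4,000 cells/well. Compounds added with 0.1 nM (final) 17beta-estradiol, 22 hr at 37C; luminescence read with ONE-Glo after 30 min.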
# [14] = qHTS assay to identify small molecule antagonists of the TGF-beta/Smad signaling pathway (AID 1346924; active = well fitted inhibition curve with a large enough effect in the signal ratio in the repeat runs, not every such curve was filed as active; inconclusive = weak or mixed curves; the % refers to the signal ratio); settings: SBE-bla HEK293T, TGF-beta/Smad reporter, beta-lactamase ratio; activity, negative = inhibition: at 76.8 µM (top of the series) unless noted
# Summary of the method: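 SBE-bla HEK 293T cells were plated overnight, then received compound in DMSO plus TGF-beta1 (added as a 0.25 ng/mL solution) and were incubated 5 h at 37 C. Beta-lactamase reporter activity was read after 2 h at room temperature with LiveBLAzer B/G FRET substrate (ex 405, em 460/530 nm).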
# [15] = target: Aryl hydrocarbon receptor (Homo sapiens) (UniProt P35869); assay: qHTS assay to identify small molecule that activate the aryl hydrocarbon receptor (AhR) signaling pathway (AID 743085);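 also: HG2L7.5c1 human HepG2 liver cells with stably integrated DRE-driven firefly reporter; % is scaled to controls: 0 for no effect and ±100 for the full control effect; nearly all actives have a fitted effect of over 15% in size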
# Summary of the method: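 Stably transfected human liver carcinoma cells (HG2L7.5c1; 20 DRE-firefly luciferase) were incubated 5 h, dosed, and kept 24 h at 37C. Agonism was scored from increased luciferase luminescence.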
# [16] = target: Nuclear receptor subfamily 1 group I member 2 (Homo sapiens) (UniProt O75469); assay: CYP3A4 induction through human pregnane X receptor (PXR) by small molecules, qHTS assay (AID 1346984); settings: DPX-2 HepG2 PXR, CYP3A4-luciferin luminescence, 24 h; activation: at 46.1 µM (top of the series) unless noted; also: potency is read from the fitted curve at half-maximal effect; nearly all actives have a fitted effect of over 40% in size
# Summary of the method: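 DPX-2 HepG2 cells carrying a PXR response element and CYP3A4-promoter luciferase construct, treated with compounds 24 hr at 37C. Then P450-Glo CYP3A4 Luciferin-IPA substrate (3uM final) for 3 hr at 37C, One-Glo added, luminescence read.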
# [17] = target: Nuclear receptor subfamily 1 group I member 2 (Homo sapiens) (UniProt O75469); assay: Human pregnane X receptor (PXR) activation by small molecules, qHTS assay (AID 1346985); also: potency is read from the fitted curve at half-maximal effect; nearly all actives have a fitted effect of over 40% in size
# Summary of the method: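 DPX-2 cells (HepG2 co-transfected with a PXR response element and a CYP3A4-promoter luciferase construct) were seeded at 2,000 per well, rested 5 hr at 37C, then exposed to DMSO-dissolved compounds for 24 hr. Activation was read as luciferase luminescence.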
# [18] = test system: thyroid hormone receptor (rat, GH3 cells); assay: qHTS assay to identify small molecule agonists of the thyroid receptor (TR) signaling pathway (AID 743066; calls by dose curve; also: % is scaled to controls: 0 for no effect and ±100 for the full control effect); settings: GH3.TRE-Luc cells, TR agonist luciferase, 24 h; activation: at 83.9 µM (top of the series) unless noted
# [19] = qHTS assay to identify small molecule agonists of the sonic hedgehog signaling (Shh) pathway - cell viability counter screen (AID 1259366); also: % is scaled to controls: 0 for no effect and ±100 for the full control effect; nearly all actives have a fitted effect of over 50% in size
# Summary of the method: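 In quantitative high-throughput format, 3T3 Gli1-Luc cells were exposed to compounds for 24hr and multiplexed for viability using CellTiter-Fluor, incubated 1hr at 37C before the fluorescence read.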
# Tags tell the direction and shape of the fitted curve or compound fluorescence and quenching.
# Chain of UniProt Q9R1A7 (Q9R1A7 whole entry, looked up): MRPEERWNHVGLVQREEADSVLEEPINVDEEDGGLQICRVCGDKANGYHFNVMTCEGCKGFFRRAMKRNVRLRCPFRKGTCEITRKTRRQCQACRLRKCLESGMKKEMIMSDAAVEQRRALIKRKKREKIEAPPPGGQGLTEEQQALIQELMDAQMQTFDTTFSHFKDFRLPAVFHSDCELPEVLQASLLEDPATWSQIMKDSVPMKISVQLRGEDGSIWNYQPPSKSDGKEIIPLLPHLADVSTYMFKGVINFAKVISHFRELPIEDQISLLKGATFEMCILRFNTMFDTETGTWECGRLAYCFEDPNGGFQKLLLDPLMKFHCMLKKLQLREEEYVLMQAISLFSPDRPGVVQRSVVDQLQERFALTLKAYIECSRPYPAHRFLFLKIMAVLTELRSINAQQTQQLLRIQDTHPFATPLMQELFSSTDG
# Chain of UniProt P03372 (P03372 whole entry, looked up): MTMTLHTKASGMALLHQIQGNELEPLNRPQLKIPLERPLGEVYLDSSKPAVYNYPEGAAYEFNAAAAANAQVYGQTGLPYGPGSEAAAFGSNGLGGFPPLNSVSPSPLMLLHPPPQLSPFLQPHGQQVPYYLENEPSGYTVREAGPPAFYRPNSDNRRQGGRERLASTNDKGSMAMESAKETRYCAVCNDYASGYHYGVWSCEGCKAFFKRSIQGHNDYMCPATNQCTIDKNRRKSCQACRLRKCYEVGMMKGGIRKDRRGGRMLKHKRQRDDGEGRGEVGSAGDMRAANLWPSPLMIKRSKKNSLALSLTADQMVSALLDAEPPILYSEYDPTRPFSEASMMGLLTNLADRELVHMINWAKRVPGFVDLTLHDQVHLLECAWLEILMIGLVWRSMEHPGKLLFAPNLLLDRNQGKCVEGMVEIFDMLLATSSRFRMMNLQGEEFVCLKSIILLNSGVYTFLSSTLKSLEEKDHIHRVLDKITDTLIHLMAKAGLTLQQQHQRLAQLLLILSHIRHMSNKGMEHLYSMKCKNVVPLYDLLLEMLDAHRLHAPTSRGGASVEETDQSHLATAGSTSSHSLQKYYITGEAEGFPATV
# Chain of UniProt P04150 (P04150 whole entry, looked up): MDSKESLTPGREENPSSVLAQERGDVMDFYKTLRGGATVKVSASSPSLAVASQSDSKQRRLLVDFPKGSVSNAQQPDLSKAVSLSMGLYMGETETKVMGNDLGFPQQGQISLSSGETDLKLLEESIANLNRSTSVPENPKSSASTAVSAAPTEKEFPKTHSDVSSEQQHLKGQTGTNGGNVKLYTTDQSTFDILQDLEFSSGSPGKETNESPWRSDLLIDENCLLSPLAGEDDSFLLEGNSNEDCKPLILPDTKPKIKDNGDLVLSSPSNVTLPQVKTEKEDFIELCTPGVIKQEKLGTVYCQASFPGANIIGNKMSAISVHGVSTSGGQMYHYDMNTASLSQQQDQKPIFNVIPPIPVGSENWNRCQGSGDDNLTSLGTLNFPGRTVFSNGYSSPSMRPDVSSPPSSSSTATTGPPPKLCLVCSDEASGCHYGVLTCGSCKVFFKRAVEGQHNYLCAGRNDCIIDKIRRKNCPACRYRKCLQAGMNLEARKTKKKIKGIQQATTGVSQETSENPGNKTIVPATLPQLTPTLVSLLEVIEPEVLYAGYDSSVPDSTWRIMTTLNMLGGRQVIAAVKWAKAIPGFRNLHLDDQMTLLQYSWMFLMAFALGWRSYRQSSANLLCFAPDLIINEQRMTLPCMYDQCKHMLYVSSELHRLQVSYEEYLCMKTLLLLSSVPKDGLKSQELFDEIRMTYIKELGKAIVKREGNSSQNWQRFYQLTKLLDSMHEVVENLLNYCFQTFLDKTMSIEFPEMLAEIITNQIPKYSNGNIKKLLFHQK
# Chain of UniProt Q03181 (Q03181 whole entry, looked up): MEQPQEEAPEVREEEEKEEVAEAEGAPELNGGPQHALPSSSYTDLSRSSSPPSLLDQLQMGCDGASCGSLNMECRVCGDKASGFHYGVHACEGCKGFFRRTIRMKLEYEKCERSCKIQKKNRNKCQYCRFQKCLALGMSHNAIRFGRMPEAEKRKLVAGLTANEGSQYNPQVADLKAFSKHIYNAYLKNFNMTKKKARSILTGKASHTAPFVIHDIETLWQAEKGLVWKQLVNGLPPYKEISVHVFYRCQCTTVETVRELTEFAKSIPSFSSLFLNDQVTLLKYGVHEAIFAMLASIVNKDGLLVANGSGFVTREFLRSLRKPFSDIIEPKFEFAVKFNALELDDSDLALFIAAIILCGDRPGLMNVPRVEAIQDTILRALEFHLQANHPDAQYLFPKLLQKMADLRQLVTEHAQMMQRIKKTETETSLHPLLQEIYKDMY
# Chain of UniProt P35869 (P35869 whole entry, looked up): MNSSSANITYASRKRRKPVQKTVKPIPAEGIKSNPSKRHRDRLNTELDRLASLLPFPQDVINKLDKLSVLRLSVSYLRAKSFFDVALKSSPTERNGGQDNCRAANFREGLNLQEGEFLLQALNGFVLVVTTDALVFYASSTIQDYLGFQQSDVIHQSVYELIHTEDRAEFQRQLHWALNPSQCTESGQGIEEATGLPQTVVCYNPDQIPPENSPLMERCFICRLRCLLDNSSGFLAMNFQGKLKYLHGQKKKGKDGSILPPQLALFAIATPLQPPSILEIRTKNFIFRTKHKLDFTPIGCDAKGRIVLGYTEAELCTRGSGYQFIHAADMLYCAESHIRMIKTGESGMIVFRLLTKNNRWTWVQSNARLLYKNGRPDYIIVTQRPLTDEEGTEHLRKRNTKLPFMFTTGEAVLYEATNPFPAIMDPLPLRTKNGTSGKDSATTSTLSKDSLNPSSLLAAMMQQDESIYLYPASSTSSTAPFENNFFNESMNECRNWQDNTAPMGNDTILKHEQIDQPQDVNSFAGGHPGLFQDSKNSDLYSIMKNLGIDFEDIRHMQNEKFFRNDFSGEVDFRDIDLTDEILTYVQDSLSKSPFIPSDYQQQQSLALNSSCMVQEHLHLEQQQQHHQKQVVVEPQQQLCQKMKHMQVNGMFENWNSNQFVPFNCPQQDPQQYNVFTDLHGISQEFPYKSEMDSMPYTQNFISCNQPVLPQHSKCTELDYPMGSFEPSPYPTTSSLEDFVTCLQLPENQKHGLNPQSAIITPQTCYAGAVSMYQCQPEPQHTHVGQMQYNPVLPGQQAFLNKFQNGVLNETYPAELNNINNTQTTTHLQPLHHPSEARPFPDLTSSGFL
compound,measurement,setting,value
CC(=O)OCC(=O)[C@@]1(O)CC[C@H]2[C@@H]3CCC4=CC(=O)C=C[C@]4(C)[C@H]3[C@@H](O)C[C@@]21C,Potency,[1],"inconclusive: 2.39 µM [activator, partial curve]"
same,Potency,[2],"inconclusive: 0.473 µM [rising, full curve, poor fit]"
same,Potency,[3],"inconclusive: 15.8 µM [activator, partial curve]"
CCCC(=O)O[C@]1(C(=O)CO)CC[C@H]2[C@@H]3CCC4=CC(=O)CC[C@]4(C)[C@H]3[C@@H](O)C[C@@]21C,Potency,[4],active: 0.213 µM
same,Potency,[5],"inconclusive: 1.07 µM [rising, single point]"
CC1=CCC(=O)O1,Potency,[6],inactive
O=C(O)[C@@H]1CSCN1,Potency,[7],inactive
same,Potency,[8],inactive
same,Potency,[6],"inconclusive: 21.1 µM [rising, partial curve, poor fit]"
COS(=O)(=O)O,Potency,[9],inactive
CCCCCCCCCCC(CO)CCCCCCCC (stereo unspecified),Potency,[10],inactive
same,Potency,[6],inactive
O=C(c1ccc2c(c1)C(=O)OC2=O)c1ccc2c(c1)C(=O)OC2=O,Potency,[8],"inconclusive: 0.347 µM [rising, partial curve, poor fit]"
same,Potency,[10],inactive
same,Potency,[11],inactive
O=CN(CCO)CCO,Potency,[12],inactive
c1coc(CNc2ncnc3nc[nH]c23)c1,Potency,[13],inconclusive: 68.6 µM [inhibitor]
CO[C@@]1(NC(=O)Cc2cccs2)C(=O)N2C(C(=O)O)=C(COC(N)=O)CS[C@@H]21,Potency,[13],inactive
same,"activity, negative = inhibition",[14],inconclusive: 14% [at 35.3 µM]
CCn1nc(C(=O)O)c(=O)c2cc3c(cc21)OCO3,Potency,[4],inactive
C=C(C)C(=O)OCc1ccccc1,Potency,[15],inactive
same,Potency,[9],inactive
O=C(CO)[C@@H](O)[C@H](O)[C@@H](O)CO,Potency,[5],inactive
same,Potency,[15],inactive
C/C=C(\C)C=O,Potency,[1],inactive
N#CCCNCCC#N,Potency,[2],inactive
O=C1c2ccccc2C(=O)N1CO,"activity, negative = inhibition",[14],inconclusive: -19.5%
O=[N+]([O-])c1ccc(F)cc1F,Potency,[7],inactive
CO[Si](C)(OC)OC,Potency,[2],"inconclusive: 0.0758 µM [rising, full curve, poor fit]"
CCN1CCCC(OC(=O)C(c2ccccc2)c2ccccc2)C1 (stereo unspecified),Potency,[2],inactive
same,Potency,[6],"inconclusive: 33.5 µM [cytotoxic, partial curve, poor fit]"
same,Potency,[16],"inconclusive: 5.01 µM [activator, partial curve, poor fit]"
same,Potency,[17],"inconclusive: 4.47 µM [activator, partial curve, poor fit]"
CCOC(=O)[C@H](O)[C@@H](O)C(=O)OCC,"activity, negative = inhibition",[14],inconclusive: 1.91%
O=P(O)(O)CP(=O)(O)O,max activation,[3],inactive: -0.378%
COc1cc([C@@H]2c3cc4c(cc3C(O[C@@H]3O[C@@H]5CO[C@@H](C)O[C@H]5[C@H](O)[C@H]3O)C3COC(=O)[C@@H]32)OCO4)cc(OC)c1OP(=O)(O)O (stereo partly specified),Potency,[1],"inconclusive: 12 µM [falling, partial curve]"
CCCCN=C(N)N=C(N)N,Potency,[11],inactive
same,Potency,[13],"inconclusive: 13.3 µM [inhibitor, partial curve]"
CN1[C@@H]2CC[C@H]1CC(NC(=O)n1c(=O)[nH]c3ccccc31)C2 (stereo partly specified),Potency,[13],inactive
NC(=O)NC(=O)Cc1ccccc1,Potency,[18],inactive
CCOc1cc(NC(C)=O)ccc1C(=O)OC,Potency,[8],"inconclusive: 0.0075 µM [cytotoxic, full curve, poor fit]"
O=S(=O)(O)c1ccc2cc(O)ccc2c1,Potency,[10],inactive
CCN(CC)CCOc1ccc(-c2nc3cc(Cl)ccc3s2)cc1,Potency,[5],"inconclusive: 26.8 µM [cytotoxic, single point]"
same,Potency,[12],"inconclusive: 10.6 µM [rising, partial curve]"
same,activation,[18],inconclusive: -7.97% [phenotype inactive]
same,Potency,[3],active: 0.794 µM
CCC(=O)c1ccc2c(c1)N(CCCN1CCN(CCO)CC1)c1ccccc1S2,Potency,[4],"inconclusive: 16.9 µM [rising, partial curve]"
same,Potency,[12],"inconclusive: 33.5 µM [cytotoxic, single point]"
same,Potency,[16],active: 14.1 µM
same,Potency,[17],active: 25.1 µM
CN1CCCN=C1/C=C/c1cccs1,Potency,[19],inactive
C=C[C@]1(C)C[C@@H](OC(=O)CSCCN(CC)CC)[C@]2(C)[C@H](C)CC[C@]3(CCC(=O)[C@H]32)[C@@H](C)[C@@H]1O,Potency,[3],"inconclusive: 11.2 µM [activator, full curve, poor fit]"
O=C(O)[C@H](CC(=O)N1C[C@H]2CCCC[C@H]2C1)Cc1ccccc1,Potency,[18],inactive
same,Potency,[1],inactive
same,Potency,[16],"inconclusive: 6.31 µM [activator, partial curve, poor fit]"
same,Potency,[17],"inconclusive: 15.8 µM [activator, partial curve, poor fit]"
